Data as given in the RNAGym collection of RNA variant scans (doi:10.7554/elife.90254).
The source gives no read counts; variants with many changes may rest on few reads.

B1: OR4K15 (parent)
chain: GUUAACGGUCAUAGGCCAUGGAAACUAGGAGCACCAUUUCGCUGCCAGUGAAGAAAUGAACAAAGAAAAUCUGGGCCAGGCAGGCAUCAAAAGAAAUAGUCUUGCGCUCAACCAGAAAGUCUGUAAUCAUUUUAAGGGUA

Variants of: B1
Assay: self-cleavage, relative activity (ratio to wild type); higher = more cleavage; in vitro, sequencing; the parent is a self-cleaving ribozyme

Variant | self-cleavage
GUUAACGGUCAUAGGCCAUGGAUACUAGGAGCACCAUUUCGCUGCCAGUGGAGAAAUGAACAAAGAAAAUCUGGGCCAGGCAGGCAUCAAAAGAAAUAGUCUUGCGCUCAACCAGAAAGUCUAUAAUCAUUUUAAGGGCA [A23U A51G G123A U139C] | 1.06
GUUAACGGUCAUAGGCCAUGGAAACUAGGAGCACCAUUUCGCCGCCAGUGGAGAAAUGAACAAAGAAAAUCUGGGCCAGGCAGGCAUCAAAGGAAAUAGUCUUGCGCUCAACCAGAAAGUCUGUAAUCAUUUUGAGAGUA [U43C A51G A92G A134G G137A] | 2.4
GGUAACGGUCAUAGGCCAUGGAAACUAGGAGCACCAUUUCGCUGCCAGUGAAGAAAUGAACAAAGAAAAUCCGGGCCAGGCAGGCAUCAAAAGAAAUAGUCUUGCGCUCAACCAGAAGGUCUGUAAUCAUUUUAAGGGUA [U2G U72C A118G] | 0.42
GUUAACGGUCAUAGGCCAUGGAAACUAGGAGCACCUUUUCGCUGCCAGUGAUGAAAUGAACAAAGAAAAUCUGGGCCAGGCAGGCAACAAAAGAAAUAGACUUGCGCUCAACCAGAAAGUCUGUAGCCAUUUUAAGGGUA [A36U A52U U87A U100A A126G U127C] | 0.12
GUUAACGGUCACAGGCCAUGGAGACUAGGAGCACCAUUUCGCUGCCAGUGAAGAAAUGAACAAAGAAAAUCAGGGCCAGGUAGGCAUCAAAAGAAAUAGUCUUGCGCUCAACCAGAAAGUCUGUAAUCAUUUUAAGGGUA [U12C A23G U72A C81U] | 0.35
GUUAACGGUCAUAGGCCAUGGAAACCAGGAGCACCACUUCGCUGCCAGUGAAGAAAUGAACAAAGAAAAUCUGGGCCAGGCAGGCAUCAAAAGAAAUAGUCUCGCGCUCAACCAGAAAGUCUGUAAUCAUUUUAAGGGUA [U26C U37C U103C] | 0.94
AUUAACGGUCAUUGGCCAUGGAAACUAGGAGCACCAUUUCGCUGCCAGUGAAGAAAUGUACCAAGAAAAUCUGGGCCAGGCAGGCCUCAAAAGAAAUAGUCUUGCGCUCAACCAGAAAGUCUGUAAUCAUUUUAAGGGUA [G1A A13U A59U A62C A86C] | 0.82
GUUAACGGUCAUAGGCCAUGGUAACUAGGAGCACCAUUUCGCUGCCAGUGGAGAAAUGAACAAAGAAAAUCUGGGCCAGGCAGGCAUCAAGAGAAAUAGUCUUGCGCUCAACCAGAAGGUCUGUAAUCAUUUUAAGGGUA [A22U A51G A91G A118G] | 0.67
GUUAACGGUCAUAGGCCAUGGAAACUAGGAGCACCACUUCGCUGCCAGUGAAGAAAUGAACAAAGAAAAUCUGGGCCAGGCAGGCAUCAAAAGUAAUAGUCUUGCGCUCAACCGGAAAGUCUGUAAUCAUUUUAAGGGUA [U37C A94U A114G] | 1.62
GUUAACGGUCAUAGGCCAUGGAAACUAGGAGCACCACUUCGCUGCCAGUGAAGAAAUGAACAAAGAAAAUCUGGGCCAGGCAGGCAUCAAAAGAAAUAGUCUUGCGCUCAGCCAGAGAGUCUGUAAUCAUUUUAAGGGUA [U37C A111G A117G] | 0.02
GUUAACGGUCAUAGGCCGUGGAAGCUAGGAGCACCAUUUCGCUGCCAGUGAAGAAAUGAACAAAGAAAAUCUGGGCCAGGCAGGCAUCAAAAGAGAUAGUCUUGCGCUCAACCAGAAAGUCUGUAAUCAUUUUAAGGGUA [A18G A24G A95G] | 0.87
GUUAACGGUCAUAGGCUAUGGAAACUAGGAGCACCACUUCGCUGCCAGUGAAGAAAUGAACAAAGAAAAUCUGGGCCAGGCAGGCAUCAAAAGAAAUAGUCUCGCGCUCAACCAGAAAGUCUGUAAUCGUUUUAAGGGUA [C17U U37C U103C A129G] | 0.25
GUUAACGGUCAUAGGCCAUGGAGACUAGGAGCACCAUUUCGCUGCCAGUGAAGGAAUGAACAAAGAAAAUCUGGGCCAGGCAGGCAUCAAGAGAAAUAGUCUUGCGCUCAACCAGAAAGUCUGUAAUCAUUUUAUGGGUA [A23G A54G A91G A135U] | 0.97
GUUAACGGUCAUGGGCCAUGGAAGCUAGGAGCACCAUUUCGCUGCCAGUGAAGAAAUGAGCAAGGAAAACCUGGGCCAGGCAGGCAUCAAAAGAAAUAGUCUUGCGCUCAACCAGAAAGUCUGUAAUCGUUUUAAGGGUA [A13G A24G A60G A64G U70C A129G] | 0.88
GUUAACGGUCAUAGGCCAUGGAAACUAGGAGCGCCAUUUCGCUGCCAGUGAAGGAAUGAACAAAGAUAAUCUGGGCCAGGCAGGCAUCAAAAGAAAUAGUCUUGCGCUCAACCAGAAAGUCUGUAAUCAUUUUAAGGGUA [A33G A54G A67U] | 0.89
GUUAACGGUCAUAGGCCACUGAAACUAGGAGCACCAUUUCGCUGCCAGUGAAGAAAUGAACAAAGAAAAUCUGGGCCAGGCAGGCAUCAAAGGAAAUAGUCUUGCGCUCAACCAGAAAGCCUGUAAUCAUUUUAAGGGUA [U19C G20U A92G U120C] | 0.89
GUUAACGGUCAUAGGCCAUGGAAACUAGGAGCGCCCUUUCGCUGCCAGUGAAGAAAUGAACAAAGAAAAUCUGGGCCAGGCAGGCAUCAAACGAAAUAGUCUUGCGCUCAACCAGAAAGUCUGUAAUCAUUUUAAGGGUA [A33G A36C A92C] | 2.16
GUUAACGGUCAUAGGCCAUGGAAACUAGGGGCACCAUCUCGCUGCCAGUGAAGAAAUGAACAAAGAAAAUCUGGGCCAGGCAGGCAUCAAAAGAAAUAGUCUUGCGCUCAACCGGAAAGUCUGUAAUCAUUUUAAGGGUA [A30G U38C A114G] | 0.27
GUUAACGGUCAUAGGCCAUGGGAACUAGGAGCACCAUUUCGCUGCCAGUGAAGAAAUGAACAAAGAAAACCUGGGCCAGGCAGGCACCAAAAGAAAUAGUCUUGCGCUCAACCAGAAAGUCUGUAAUCAUUUUAAGGGUA [A22G U70C U87C] | 0.56
GUUAACGGUCAUAGGCCAUGGAAGCUAGGAGCACCAUUUCGCUGCCAGUGAAGAGAUGAACAAAGAAAAUCUGGGCCAGGCAGGCACCAAAAGAAAUAGUCUUGCGCUCGACCAGAAAGUCUGUAAUCAUUUUAAGGGUA [A24G A55G U87C A110G] | 0.05
GCUAACGGUCGUAGGCCAUGGAAACUAGGAGCACCAUUUCGCUGCCAGUGAAGGAAUGAACAAAGAAAAUCUGGGCCAGGCAGGCAUCAAAAGAAAUAGUCUUGCGCUCAACCAGAAAGUCUGUAAUCAUUUUAAGGGUA [U2C A11G A54G] | 0.88

Variant | self-cleavage
GUUAACGGUCAUAGGCCAUGGAAACUAGGAGCACCAUUUCGCUGCCAGUGAAGGAAUGAACAAAGAAAGUCUGGGCCAGGCAGGCAUCAAAAGAGAUAGUCUUGCGCUCAACCAGAAAGUCUGUAAUCAUUUUAAGGGUA [A54G A69G A95G] | 1.2
GUUAACGGUCAUAGGCCAUGGAAACUAGGAGCACCAUUUCGCAGCCUGUGAAGAAAUGAACAAAGAAAAUCUGGGCCAGGCAGGCAUCAAAAGAAAUAGUCUUGCGCUCAACCAGAGAGUCUGUAAUCAUUUCGAGGGUA [U43A A47U A117G U133C A134G] | 2
GUUAACGGUCAUAGGCCAUGGGAACUAGGAGCACCAUUUCGCUGCCAGUGAAGAAAUGAACAAAGAGAAUCUGGGCCAGGCAGGCAUCAAAAGAAAUAGUCUUGCGCUCAACCAGAAAGUCUGUAACCAUUUUAAGGGUA [A22G A67G U127C] | 1.01
GUUAACGGUCAUAGGCCAUGGAAACUAGGAGCACCAUUCCGCUGCCAGUGAAGAAAUGAACAAAGAAAAUCUGGGCCAGGCAGGCAUCAAAAGAAAUGGUCUUGCGCUCAACCAGAAAGUCUGUAAUCACUUUGAGGGUA [U39C A98G U130C A134G] | 0.4
GUUAACGGUCAUAGGCCAUGGAAACUAGGGGCACCAUUUCGCUGCCAGUGAAGAAAUGAACAAGGAAAAUCUGGGCCAGGCAGGCAUCAAAAGAAAUAGUCCUGCGCUCAACCAGAAAGUCUGUAACCAUUUUAAGGGUA [A30G A64G U102C U127C] | 1.05
GUUAACGGUCAUAGGCCAUGGAAUCUAGGAGCACCAUUUCGCUGCCAGUGAAGUAAUGAACAAAGAGAAUCUGGGCCAGGCUGGCAUCAAAAGAAAUAGUCUAGCGCUCAACCAGAAAGUCUGUAAUCAUUUUAAGGGUA [A24U A54U A67G A82U U103A] | 0.26
GUUAACGGUCAUAGGCCAUGGAAACUAGGAGCGCCAUUUCGCUGCCAGUGAAGAAAUGAACAAGGAAAGUCUGGGCCAGGCAGGCAUCAAAAGAAAUAGUCUUGCGCUCAACCAGAAAGUCUGUAAUCAUUUUAAGGGUA [A33G A64G A69G] | 0.89
GUUAACGGUCAUAGGCCAUGGAAACUAGGAGCACCAUUUCGCUGCCGGUGAAGAAAUGAACAAAGAAGAUCUGGGCCAGGCGGGCAUCAAAAGAAAUAGUCUUGCGCUCAACCAGGAAGUCUGUAAUCAUUUUAAGGGUA [A47G A68G A82G A116G] | 0.34
GUUAACGGUCAUAGGCCAUGGAGACUAGGAGCACCAUUUCGCUGCCAUUGAAGAAAUGAACAAAGAAAAUCUGGGCCCGGCAGGCAUCAAAAGAAAUAGUCUUGCGCUCAACCAGAAAGUCUGUAAUCAUUUUAAGGGUA [A23G G48U A78C] | 0.32
GUUAACGGUCAUAGGCCAUGGAAACUAGGAGCACCAUUCCGCUGCCAGUGAAGAAAUGAACAAAGAAAAUCUGGGCCUGGCAGGCAUCAAAGGAAAUAGUCUUGCGCUCAACCAGAAGGUCUGUAAUCAUUUUAAGGGUA [U39C A78U A92G A118G] | 0.08
GUCAAUGGUCAUAGGCCAUGGAAGCUAGGAGCACCAUUUCGCUGCCAGUGAAGAAAUGAACAAAGAAAAUCUGGGCCAGGCAGGCAUCAAAAGAAAUAGUCCUGCGCUCAACCAGAAAGUCUGUAAUCAUUUUAAGGGUA [U3C C6U A24G U102C] | 1.44
GUUAACGGUCAUAGGCCAUGGAAACUAGGAGCACCACUUCGCUGCCAGUGAAGAAAUGAACAAAGAAAGUCUGGGCCAGGCAGGCAUCAAAAGGUAUAGUCUUGCGCUCAACCAGAAAGUCUGUAAUCAUUUUAAGGGUA [U37C A69G A94G A95U] | 1.24
GUUAACAGUCAUAGGCCAUGGAAACUAGGAGCACCAUUUCGCUGCCAGUGAAGAAAUGAACAAAGAGAAUCUGGGCCAGGCAGGCAUCGAAAGAAAUAGUCUUGCGCUCAACCAGAAAGUCUGUAAUCAUUUUAAGGGUA [G7A A67G A89G] | 1.29
GUUAACGGCCAUAGGCCAUGGAAACUAGGAGCACCAUUUCGCAGCCAGUGAAGAAAUGAGCAAAGAAAAUCUGGGCCAGGCAGGCAUCAAAAGAAAUAGUCUUGCGCUCAACCAGAAAGUCUGUAAUCAUUUUAAGGGUA [U9C U43A A60G] | 0.85
GUUAACGGUCAUAGGCCAUGGAAGCUAGGAGCACCAUUACGCUGCCAGUGAGGAAAUGAACAAAGAAAAUCUGGGCCAGGCAGGCAUCAAAAGAAAUAGUCUUGCGCUCAACCAGAGAGUCUGUAAUCAUUUUAAGGGUA [A24G U39A A52G A117G] | 1.24
GUUAACGGUCAUAGGCCAUGGAACCUAGGAGCACCAUUUCGCUGCCAGUGAAGAAAUGAACAAAGGAAAUCUGGGCCAGGCAGGCAUCAAAAGAAAUAGUCUUGCGCUCAACCAGGAAGUCUGUAAUCAUUUUAAGGGUA [A24C A66G A116G] | 0.83
GUUAACGGUCAUAGGCCAUGGAAACUAGGAGCACCAUUUCGCUGCCAGUGAGGAAGUGAACAAAGAGAAUCUGGGCCAGGCAGGCAUCAAAAGAAAUAGUCUUGCGCUCAACCAGAAAGUCUGUAAUCAUUUUAAGGGUA [A52G A56G A67G] | 1.69
GUUAACGGUCAUAGGCCAUGGAAACUAGGAGCACCAUUUCGCUGCCAGUGAAGAAAUGAACAAAGAAAAUCUGGGCCCGGCAGGCAUCAAAGGAAAUAGUCUUGCGCUCAACCAGAAAGCCUGUAAUCAUUAUAAGGGUA [A78C A92G U120C U132A] | 0.05
GUUAACGGUCAUAGGCCAUGGAAGCUAGGAGCACCAUUUCGCCGCCAGUGAAGAAAUGCACAAGGAAAAUCUGGGCCAGGCAGGCAUCAAAAGAAAUAGUCUUGCGCUCAACCAGAAAGUCGGUAAUCAUUUUAAGGGUA [A24G U43C A59C A64G U122G] | 0.94
GUUAACGGUCAUAGGCCAUGGAAACUAGGAGCACCAUUCCGCUGCCGGUGAAGAAAUGAACAAAGAAGAUCUGGGCCAGGCAGGCGUCAAAAGAAAUAGUCUUGCGCUCAACCAGAAAGUCUGUAAUCAUUUUAAGGGUA [U39C A47G A68G A86G] | 1.63
